Holding throughout (experiment): glycan array binding signal (z-score within array); higher = stronger binding
Holding throughout (details): glycan notation: IUPAC condensed, linker removed; mutation: E227G

For assay [1], the target named is Neu5Gc(a2-8)Neu5Gc(a2-3)Gal(b1-4)GlcNAc(b1-3)Gal(b1-4)GlcNAc. The procedure, abridged: (§1)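 The binding signal is a Z-score computed within each array and averaged over linkers. Arrays of the same protein sequence at different concentrations or buffers were also averaged together. Data originate from 3228 arrays in the Consortium for Functional Glycomics database, kept only where the protein sequence was available.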

Assay [2] concerns the target Neu5Gc(a2-8)Neu5Gc(a2-6)Gal(b1-4)GlcNAc. Summed up:
as §1

Assay [3] addresses Neu5Gc(b2-6)Gal(b1-4)GlcNAc. Summed up:
as §1

Some of the results follow.

B1: Epa1-NP-mutant-E227G (Candida glabrata), Q6VBJ0 (protein)
chain: MILNPALFLNKCVCIYTTLILLLLTNGGYATSSNDISLASKDPTTFPLGCSPDITTPKKGLSMELYSYDFRKKGSYPCWDAAYLDPNYPRTGYKSHRLLAKVDGVTGNINFYYHATKGCTPQLGHLPASYNYPKPLTMTNFTMLLYGYFRPKVTGFHTFTISADDLLFVNFGAGNAFDCCRRDSSADHFGNYQAYAIWGSKTAKDELTVHLDAGVYYPIRLFYNNRGYDGALSFTFKTESNENTVSDFSEYFFSLDDTEEGCPGLISYDSSCASVKTSKIIGIDYHTETPNENLVPITKTIYHLGIPCTGTTTTPLCGSGFYDPLANKCVTINTSSTSSVTKTTSHTTSKEVSFHSSISSQKTLIPKSIPSPYGPIKSQSIPTEMETSSEISSSEYAFSDVISTPSHSPYTKKHSSLNSSSYTSTVIHSLTSYSISQGIFSTSLSEQNITSKSSTDKFSTATSMSNNITQSSIIISQFSTNNENYTTTSMHTSSDKISTETLNNSISTTTSILFSNSSTILKNNTTIISSDKDTHYHPVNPTIVCSTNKTEIICASITQPSISNSNNHWSSSVLKFNSTTVRSTLPSSAGSNETSINVPFSSSTESNTSTSSTSTSNSKMVRSTLPSSAGSNETSISVPFSSSTESNTSTSSTSTSNSKMVRSTLPSSAGSNETSINVPFSSSTESNTSTSSTSTSNSKTVRSTPFSSAGIIMTSLSQRNNKSASSYASSNSKCYNTADSCRKVHSTPSYLLTSSYTSEGVDYDCSLVSTKLKINDTNCVNNKHTTKSCLKTSVTTTIPTLEIKTARKSSSNTIGLHSYPTSSPNKSISSAPIIGYISSFKTIKTASPSYQTSDLTTITTITSLNNPGSTAVENTHESNDKSRKTSSNDISSKHSVIKETKDAVESSNKSHQTNTLKCSSIIIASSSHNSYESLGGTTLTLTLSKVYSPQNNDTLPFLEISEVNPSRTVLPESSKMMQYLTSTEERNKTARNTIATNIVSISTFHFEGEGNAIRMGYTQLLLMLIGIIVMNIGT
B1: the figures for the “glycan array binding signal (z-score)” value in assay [1], in assay [2] and in assay [3] were -0.291, -0.272 and -0.087, respectively.
